What was measured:
[1] = molecular target: Fluorescent labelled FVIII (Oregon green-FVIII) (human) (UniProt P00451); assay: cell-based or functional assay
[2] = molecular target: Radioactively labelled FVIII (125I-FVIII) (human) (UniProt P00451); assay: cell-based or functional assay

Plasma derived full length VWF, VWF ([…]) (a stretch of the chain, sequence not shown) (other; Oregon Green fluorescent label)
IC50 (nM), inhibition of uptake of fluorescently labelled FVIII in macrophages [1]: 15.6 nM | Maximal inhibition (%), uptake of fluorescently labelled FVIII in macrophages [1]: 32.6%

Plasma derived full length VWF, VWF ([…]) (a stretch of the chain, sequence not shown) (other; 125I label)
IC50 (nM), inhibition of 125I-FVIII binding to U87 MG cells [2]: 1.2 nM | IC50 (nM), inhibition of 125I-FVIII internalization in U87 MG cells [2]: 1.3 nM | Maximal inhibition (%), 125I-FVIII binding to U87 MG cells [2]: 34.3% | Maximal inhibition (%), 125I-FVIII internalization in U87 MG cells [2]: 32.2%
